Variants at the floor of the assay are shown more often than the library holds them.
B1: TPR 5TU (parent)
chain: GGAUCUUCUCGAUCUAACAAAAAAGACAAAUCUGCCACAAAGCUUGAGAGCAUCUUCGGAUGCAGAGGCGGCAGCCUUCGGUGGCGCGAUAGCGCCAACGUUCUCAACUAUGACACGCAAAACGCGUGCUCCGUUGAAUGGAGUUUAUCAUG

Variants of: B1
Assay: polymerase ribozyme fitness, log enrichment relative to wild type (log ratio); higher = more active; in vitro selection for triplet polymerase activity
Method in brief: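 Fitness measures genotype enrichment against wild-type enrichment on a logarithmic scale, with inverse-variance-weighted averaging of replicates. The logarithm is base 2, and genotypes were kept only with ≥10 input reads and ≥1 read per output in Illumina sequencing. The sequenced libraries came from one triplicate in vitro selection round, including frozen incubation at −7 °C, of PCR-built, transcribed mutant libraries of each subunit of a heterodimeric triplet polymerase ribozyme.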

Polymerase ribozyme fitness (log ratio), -3.43:
A41C U53G

Polymerase ribozyme fitness (log ratio), -2.65:
A41U A52C A98U

Polymerase ribozyme fitness (log ratio), -1.29:
A41U G124A

Polymerase ribozyme fitness (log ratio), -2.72:
A41G U53A C85A

Polymerase ribozyme fitness (log ratio), -4.11:
A41G C57G C76U G94A A110G C116G U139G
G42A G59A

Polymerase ribozyme fitness (log ratio), -2.88:
A41U U82A A142C

Polymerase ribozyme fitness (log ratio), -1.45:
A41C U56A U82A A150G

Polymerase ribozyme fitness (log ratio), -3.53:
A41G C54G G84A U148C

Polymerase ribozyme fitness (log ratio), -4.03:
A41U G46U A52U

Polymerase ribozyme fitness (log ratio), -0.68:
A41G U55A C93U

Polymerase ribozyme fitness (log ratio), -3.99:
G42A C116G

Polymerase ribozyme fitness (log ratio), -3.19:
A41U C93A

Polymerase ribozyme fitness (log ratio), -3.42:
A41G G65A G143U

Polymerase ribozyme fitness (log ratio), -0.646:
A41G C76U G86A G117A

Polymerase ribozyme fitness (log ratio), -3.6:
A41U C54A G59A C85G
A41U C63U U102C

Polymerase ribozyme fitness (log ratio), -3.86:
A41C U56A A91G A97G A142U

Polymerase ribozyme fitness (log ratio), -4.05:
G42C A60G

Polymerase ribozyme fitness (log ratio), -0.462:
A41G G59A U61A

Polymerase ribozyme fitness (log ratio), -0.77:
A41G U53G

Polymerase ribozyme fitness (log ratio), ≤ -4.2:
A41C U53A C54U C75A G86C U144G U145A
A41C U53A G59U C76A A97U G126A
A41C U55C C85G C108U G126A
A41C U55G C95A A113G C129A
A41C U55G C114U G117U C149A
A41C U55G G83A G86A A97U G128A C131A
A41C U56A C57U C87A A98U G124C C149A
A41C U56A C79A C96A C131G
A41C U56A G59C G74C C79U C85A U102G U109G A120G G124A U148C
A41C U148G
A41G A49C U82G U90G G133A
A41G A52G U78A
A41G C43A G62C C63A A66G C85A A107C C116A C125G
A41G C57A C79U G88A A98U A120C G141A
A41G C72U C76A C87U A98U C99G A110G
A41G C75G C87G U151G
A41G C75G G92C U146A
A41G C85A A106U
A41G G42C A47C C57U G84U A89G C93A C96G U101C
A41G G42C A64U G88U U102G
A41G G50C A52C G68A G92U C105A U135G G143A
A41G G58C U61C U82G C87G U104G C118G G141U
A41G G59A A64G G74U C93A C118G G136A
A41G G88A U104A A106G
A41G G94U C125U G141A A150C
A41G U56A C76U U77G G83C A110G U134A
A41U A47C C125G G126A A138G
A41U A52G U102G U145C
A41U A66C C85A A122U
A41U A89G A91C U101A
A41U C54A C79U G88C U148C
A41U C69A C103G A150G
A41U C75G
A41U C85U A91U A107U
A41U C87A
A41U C96A C105A G117U U144G
A41U C103G A113G C125A
A41U G46A G70C C87G U148C G152A
A41U G46C G65A C79U G80A G88C G92A A115C
A41U G48A G83C U111C
A41U G50A C75G C132A
A41U G50A G71C G124C
A41U G50C C76U C93G A138G A150U
A41U G59U C85U C87G U145G
A41U G65C U90G
A41U G67C C85A C118G
A41U G68A C76U G117U
A41U G68C A91U U102C
A41U G74C A91C A97U
A41U G84A C96U A107C A147C
A41U G133U U135A A142G A147U
A41U U45G C87U U104G C108U
A41U U53A C75G C87G A89U
A41U U56A G74A C76U G86U G133C
A41U U61A G84U C103U C116U G141C
A41U U61C C79A A110C G143C
A41U U82A C95G A138C
A41U U82A C114G A122U G126A G133A
G42A A47U U53G A64U G94U A120U
G42A A49C G59A C95A A142C
G42A A49G A64G A107U C114U
G42A A52C U148G
G42A A52G G83U G86A G136U
G42A A52G U56A G70A A89U A98U C99U G141A
G42A A73G G80A G94A A119G C129G
G42A A73U A150U
G42A A89G C93U C125U G141U
G42A C51A G81U A91U A97U G126U
G42A C54A C69U C85A U90G C116G C118G U127C
G42A C54G U82C G94U
G42A C54U A66G A142U
G42A C57U A66G C87U C105U
G42A C57U G94U C108U U109C A115U
G42A C63G G70A C87U
G42A C69U U90G C95G
G42A C72G C95U G152A
G42A G48A U102C C103A
G42A G50C C93G A138G
G42A G58A U135C U139C A142C A147G
G42A G58U G62U C75G G92A A137U
G42A G59C C125G
G42A G59U C87G U90G G141U
G42A G71A
G42A G81C C85U C99G
G42A G86A A89C C123U U134C A147G
G42A G86A C118A
G42A G88C
G42A G88C C95A C125G
G42A G141C
G42A U44A A52G C69A A107G A120U C123U G133C G140U
G42A U44G A49C C95U
G42A U44G U56A G81C C85A G117U
G42A U53G A64U G67C C76A G86C C93G C95U
G42A U53G C72U C95U A107U C132A
G42A U55A G59C
G42A U77A C79G G84C G133C G141U U146G U148A
G42A U144A
G42C A47G A73U C95A
G42C A49G A138C
G42C A60G C76A C96U
G42C A60G G92U C105G U111C A115C G133C U134C
G42C A60U G67C G128U A138U
G42C C43A
G42C C43G G88U C123A
G42C C51A A64C C96A C99A
G42C C54G A66G C75G G92A C105G C108U U130G G140U
G42C C54G C96G A113U U144C
G42C C57A U77G G88C A142U
G42C C57G G92U U145A
G42C C57U A73G
G42C C57U G81A
G42C C79G G81A C85A G112A A138G U146A
G42C C79G G124C
G42C C79U G88A A142C
G42C C93G
G42C C99A
G42C C99U
G42C C103U G117C C125U U134G G140U
G42C G46A G68C C95A A106U C108G
G42C G46A G70A C105U
G42C G50A A113C U139G U145C U148C
G42C G50C C85U C96U C116U
G42C G50U G84A C99A
G42C G74C U77C U135C
G42C G80C C93A U104A C108G U145A U146C
G42C G88A A89C C93G A97G C103A A110C
G42C G88U U101G A106U
G42C G94C U111C
G42C G117A
G42C U44A G70C C96U G126U G141A
G42C U45A U53G U78A G86C C87A C95U A98G
G42C U55A A64G C79G A89U C93G
G42C U55A C85U
G42C U55A G70A U82C U90C C95U C108A U109C
G42C U56G G81A G84A C123A G126A
G42C U56G U61A
G42C U61A A64U C125A
G42C U77A C87U U102G
G42C U78G C85U C99G A121U C132G U139C
G42C U90C U109A
G42U A47C C87A U104G A107G
G42U A47G C99G C116U
G42U A47U U56G G59U G68C C125A

Polymerase ribozyme fitness (log ratio), -3.07:
A41C U148C

Polymerase ribozyme fitness (log ratio), -2.06:
A41U A120G G143A

Polymerase ribozyme fitness (log ratio), -0.0573:
A41G U146G

Source: the RNAGym collection of RNA variant scans (doi:10.1073/pnas.2313332121)
